# Experimental data as given in the supplement of paper PMC10477191.
# ± gives the standard deviation of the averaged measurements. Some of the results follow.
# Test system: Drosophila ezoana
# Test: attraction index (odor vs solvent trap) (index (-1 to 1)); higher = more attraction to the odorant
# Conditions: test temperature 23 °C; odor dose: 10^-2 dilution in mineral oil
# Method: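 Two-choice trap assay at 23 °C and 70% humidity. Starved adult flies (20 per box, 4-6 days old) chose between a trap with odorant (2 µl at 10^-2 in 200 µl mineral oil) and a solvent trap; counts were taken after 24 h.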
row,Compound,attraction index
1,C=CC(O)CCCCC (stereo not drawn) [1-octen-3-ol],-0.154 ± 0.23
2,CC(=O)CCC=C(C)C [6-methyl-5-hepten-2-one],-0.0583 ± 0.56
3,CC(C)OC(=O)c1ccccc1 [isopropyl benzoate],0.0301 ± 0.34
4,CCCCCCOC(C)=O [hexyl acetate],-0.201 ± 0.32
5,COC(=O)c1ccccc1 [methyl benzoate],-0.00603 ± 0.47
6,CC(=O)OC/C=C(\C)CCC=C(C)C [geranyl acetate],0.128 ± 0.25
7,CC(=O)c1ccccc1 [acetophenone],-0.54 ± 0.26
8,CCOC(=O)CC(C)O (stereo not drawn) [ethyl 3-hydroxybutyrate],-0.27 ± 0.53
9,CCCCCC(=O)OCC [ethyl hexanoate],0.0823 ± 0.35
10,CCCCCOC(C)=O [pentyl acetate],0.0885 ± 0.3
11,COC(=O)c1ccccc1O [methyl salicylate],0.267 ± 0.19
12,CC(=O)C(C)O (stereo not drawn) [acetoin],-0.22 ± 0.45
13,CCCCCCO [1-hexanol],-0.0336 ± 0.4
14,CCCCCC(C)=O [2-heptanone],0.404 ± 0.35
15,CCOC(=O)C(C)O (stereo not drawn) [ethyl lactate],-0.02 ± 0.46
16,CCCC(=O)OCc1ccccc1 [benzyl butyrate],0.449 ± 0.2
17,COc1ccccc1O [guaiacol],-0.424 ± 0.46
18,"COc1cccc(OC)c1O [2,6-dimethoxyphenol]",0.0943 ± 0.37
